About 65 (0.1%) of roughly 45,000 compounds were called active. The call rests on the fitted dose curve; in most records, active means well fitted activation curve with a large enough effect; inconclusive means small, poorly fitted or top-dose-only effect; inactive means no such curve, though single readings can be large or run the other way. The list shows a part of the results.

UniProt P54803, sequence (P54803 whole entry, looked up): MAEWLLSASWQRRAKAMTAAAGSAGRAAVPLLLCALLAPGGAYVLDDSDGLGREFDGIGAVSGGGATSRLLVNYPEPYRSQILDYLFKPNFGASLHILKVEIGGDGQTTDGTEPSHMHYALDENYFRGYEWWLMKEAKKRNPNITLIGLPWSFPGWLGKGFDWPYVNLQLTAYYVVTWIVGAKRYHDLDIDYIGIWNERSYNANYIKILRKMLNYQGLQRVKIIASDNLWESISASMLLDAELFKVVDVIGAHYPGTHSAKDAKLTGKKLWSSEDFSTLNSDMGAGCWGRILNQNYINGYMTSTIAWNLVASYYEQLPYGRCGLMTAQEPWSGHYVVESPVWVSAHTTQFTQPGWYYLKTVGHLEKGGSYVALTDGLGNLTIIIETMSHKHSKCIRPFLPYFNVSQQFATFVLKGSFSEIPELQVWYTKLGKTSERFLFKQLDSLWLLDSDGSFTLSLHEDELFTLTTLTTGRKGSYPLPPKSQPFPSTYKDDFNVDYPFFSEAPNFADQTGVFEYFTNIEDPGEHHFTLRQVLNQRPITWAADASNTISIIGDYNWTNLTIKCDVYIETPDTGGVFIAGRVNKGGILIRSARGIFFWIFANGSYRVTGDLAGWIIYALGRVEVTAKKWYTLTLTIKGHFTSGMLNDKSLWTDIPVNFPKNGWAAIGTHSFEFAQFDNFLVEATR

The target of this experiment is Galactocerebrosidase (Homo sapiens) (UniProt P54803). As to the kind of experiment: A Novel Cell-Based Assay to Identify Small Molecules for B -Galactocerebrosidase. Further: 0% is about no effect; nearly all actives have a fitted effect of over 65% in size. The settings on record: 145M-Twi-hGALC-G270D cells (Twitcher mouse brain line with human GALC G270D), HMU-beta-Gal fluorescence, 48 h; series mostly up to 57.5 µM; activation: at the top concentration. In outline:
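Live 145M-Twi cells (Twitcher mouse brain-derived, GALC-null) stably expressing human GALC-G270D, with a wild-type GALC line, were compound-treated. Residual GALC activity was then read as fluorescence from 0.1 mM final HMU-β-gal at pH 5.2; higher signal means activation.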
For the compound `COc1ccc(-n2c(=O)c3ccccc3n(Cc3ccccc3C)c2=O)c(OC)c1`, the “activation” value was inactive: -17.2%. As to `Cc1ccc(-n2nc(CO)c(C(=O)NCCCc3ccccc3)n2)cc1`, the “activation” value was inactive: -9.16%. Regarding `CCc1ccccc1Nc1nc2cc(Cl)c(Cl)cc2nc1-n1nc(C)cc1C`, the “activation” value is inactive: -3.81%.

As to `CCOc1ccc(C(=O)c2cnc3ccc(Cl)cc3c2S(=O)(=O)c2ccc(C)cc2)cc1`, the “activation” value was inactive: -26.5%. Regarding `CCOc1ccc(CNC(=O)C2CCCN(S(=O)(=O)N(C)c3ccc(F)cc3)C2)cc1OC` (configuration not stated), the “activation” value is inactive: -13.5%.

`Cc1ccc(-n2ncc3c(Nc4ccccc4C)ncnc32)cc1`: the “activation” value was inactive: -7.5%. In the case of `COc1cccc(Cn2c(NCc3ccc(C)cc3)nc3c2c(=O)n(C)c(=O)n3C)c1`, the “activation” value was inactive: -18.9%. Regarding `CC(=O)Nc1ccc(NS(=O)(=O)c2c(C)nc3sccn3c2=O)cc1`, the “activation” value was inactive: -10.5%. For `CCOC(=O)c1cnc2c(ccc3ccccc32)c1Nc1ccc(Cl)cc1` the value was inactive: -15.9%.

As for `CC[C@]12CCCN3CCc4c(n(c5ccccc45)[C@@](O)(C(=O)OC)C1)[C@@H]32`, the “activation” value was inactive: -9.09%. As for `CC(=O)c1ccc(NC(=O)c2ccc(-c3nc(COc4ccc(C)cc4)c(C)o3)cc2)cc1`, the “activation” value is inactive: 15.5%. Regarding `COc1ccc(-c2cn3nc(N4CCCC(C(=O)NCc5ccccc5OC)C4)sc3n2)cc1` (configuration not stated), the “activation” value was inactive: -10.5%. The value for `Cc1nn(-c2ccc3nnc(C)n3n2)c(C)c1CCC(=O)Nc1ccc(OC(F)(F)F)cc1` was inactive: -14.8%. With `COC(=O)c1cc(-c2ccc(OC)c(OC)c2)c2c(=O)[nH]c(=O)n(C)c2n1`, the “activation” value is inactive: 1.5%. For the compound `CCC(=O)N1CCc2cc(S(=O)(=O)NC(CC(C)C)C(=O)NCc3ccc(F)cc3)ccc21` (configuration not stated), the “activation” value is inactive: -26.7%. On to `C[N+]1(CC2COC(c3ccccc3)(C3CCCCC3)O2)CCCCC1` (configuration not stated), for which the “activation” value was inactive: -15.6%. As for `O=C(CCn1c(=O)c2sccc2n(Cc2cccc(F)c2)c1=O)NCc1ccc2c(c1)OCO2`, the “activation” value was inactive: 8.98%.

Regarding `Cc1ccc(S(=O)(=O)c2nc(-c3ccco3)oc2SCC(=O)Nc2ccc(F)cc2)cc1`, the “activation” value is inactive: -30.7%. On to `Cc1ccc(NC(=O)Cn2c(=O)n(Cc3nc(C)no3)c(=O)c3cc4c(cc32)OCO4)c(Cl)c1`, for which the “activation” value is inactive: -14.5%.

With `Cc1cccc(C)c1NC(=O)Cn1c(=O)n(Cc2ccco2)c(=O)c2ccc(C(=O)NC3CCCC3)cc21`, the “activation” value was inactive: -17.4%. In the case of `O=C(NCCc1nc2ccccc2n1CCCOc1ccc(Cl)cc1)C1CCCCC1`, the “activation” value was inactive: -20.1%. For the compound `O=C(Nc1c2c(nn1-c1ccc(Cl)cc1)CS(=O)(=O)C2)c1ccccc1F`, the “activation” value was inactive: -24%. For `Cc1nn2c(C)c(C(=O)NCC(C)c3ccccc3)cnc2c1-c1ccccc1` (configuration not stated), the “activation” value was inactive: -11.1%. For `COc1ccc(C2NC(=O)N(C)C3=C2C(=O)N(c2ccc(F)cc2)C3)cc1` (configuration not stated), the “activation” value was inactive: -22.1%. Turning to `Fc1ccc(Cn2c(-c3cccc(Br)c3)nc3ccccc32)cc1`, the “activation” value was inactive: -3.8%. For `CCOc1ccc(CCNC(=O)Cn2nc(CC)n3c(cc4sccc43)c2=O)cc1` the value was inactive: -6.54%. On to `CCOc1cc(C2c3c(-c4ccccc4O)n[nH]c3C(=O)N2Cc2cccnc2)ccc1O` (configuration not stated), for which the “activation” value is inactive: -6.66%. With `CSc1ccc(/C=C2/C(C)=C(CC(=O)O)c3cc(F)ccc32)cc1`, the “activation” value was inactive: -13.6%. Turning to `Cc1ccc(NC(=O)c2sc(-n3nc(C)c(Cc4ccc5c(c4)OCO5)c3C)nc2C)cc1C`, the “activation” value is inactive: -9.72%. For `CCC(C(=O)NCc1ccccc1Cl)n1nc(C)c2sc3ccccc3c2c1=O` (configuration not stated) the value was inactive: -12.2%; for `Cc1cccc(NC(=O)CSc2nccn2-c2cccc(Cl)c2)c1C`, inactive: -13.1%. For `COc1ccc(C(=O)Nc2noc3ccccc23)cc1`, the “activation” value was inactive: -0.73%. As to `O=c1cc(-c2ccccc2)n2c(SCc3cccc([N+](=O)[O-])c3)nnc2[nH]1`, the “activation” value was inactive: -34.9%. For `O=C(CCCn1c(=O)c2sccc2n(Cc2cccc(Cl)c2)c1=O)NCc1ccc2c(c1)OCO2`, the “activation” value was inactive: -24.5%. Take `CCOC(=O)CN1C(=O)c2cccnc2Oc2ccccc21`: the “activation” value is inactive: -8.06%. Turning to `CNS(=O)(=O)c1cn(CC(=O)N2CCN(c3cc(C)ccc3C)CC2)cc1S(=O)(=O)NC`, the “activation” value was inactive: -16.3%. With `Cc1cc(C)cc(NC(=O)CSCc2cc(=O)c3ccc(C)c(C)c3[nH]2)c1`, the “activation” value is inactive: -8.65%. `CCCCN(c1ccccc1)S(=O)(=O)c1ccc2c(c1)CC(C)N2C(=O)C1CC1` (configuration not stated): the “activation” value is inactive: -19.4%. Regarding `CCc1ccccc1Nc1nc2ccccc2n2cnnc12`, the “activation” value is inactive: -3.34%. `COc1ccc(CCNC(=O)CCn2c(=O)c3cccn3c3cccnc32)cc1OC`: the “activation” value is inactive: 4.82%. Regarding `COc1ccc(Cl)cc1NC(=O)CSc1nc(-c2ccco2)cc(C(F)(F)F)n1`, the “activation” value was inactive: -13.2%. Regarding `CCOc1cc(C(=O)N2CCC(c3ccncc3)CC2)cc(OCC)c1OCC`, the “activation” value was inactive: -8.19%. For the compound `CCOc1ccc(NC(=O)CN2CCN(CC(=O)Nc3ccccc3OCC)CC2)cc1`, the “activation” value is inactive: -8.85%.

For `CCC(C)(C)c1ccc(CC(C)CN2C[C@@H](C)O[C@@H](C)C2)cc1` (some centres not stated), the “activation” value was inactive: -24.4%. For `NC(=O)C1CCN(C(=O)Cn2c(-c3cccs3)cc3ccccc32)CC1`, the “activation” value is inactive: -12.5%. Turning to `Cc1cccc(C)c1OC(=O)CSc1nnc(-c2cccs2)o1`, the “activation” value was inactive: 1.13%.

For the compound `COc1ccc(-c2oc3ncn4nc(-c5ccccc5C)nc4c3c2-c2ccc(OC)cc2)cc1`, the “activation” value is inactive: -14.2%.
